Results published in the antibiotic and cytotoxicity screens of Wong et al. (2023).
This is one part of the list.

System: HepG2
Assay: cytotoxicity call (relative viability < 0.9)
Settings: 10 µM

Row | SMILES | cytotoxicity call
1 | C[C@@H]1CCCCO[C@H](CN(C)C(=O)Cc2ccccc2)[C@@H](C)CN([C@@H](C)CO)C(=O)c2cc(NC(=O)CCC(F)(F)F)ccc2O1 | inactive
2 | C[C@H]1CN([C@@H](C)CO)C(=O)c2cccc(NS(=O)(=O)c3ccc(Cl)cc3)c2O[C@H]1CN(C)Cc1ccc(Cl)c(Cl)c1 | inactive
3 | C[C@@H]1CCCCO[C@H](CN(C)C(=O)NC2CCCCC2)[C@@H](C)CN([C@H](C)CO)C(=O)c2cc(NS(=O)(=O)c3ccc(Cl)cc3)ccc2O1 | inactive
4 | Cc1noc(C)c1S(=O)(=O)N(C)C[C@H]1Oc2ccc(NC(=O)CCN3CCOCC3)cc2C(=O)N([C@@H](C)CO)C[C@H]1C | inactive
5 | C[C@@H]1CN([C@H](C)CO[Si](C)(C)C(C)(C)C)C(=O)c2cc(NC(=O)Nc3ccccc3)ccc2O[C@@H](C)CCCCO[C@H]1CN(C)S(=O)(=O)c1ccc(F)cc1 | inactive
6 | C[C@@H]1CCCCO[C@@H](CN(C)C(=O)Nc2ccc3c(c2)OCO3)[C@@H](C)CN([C@@H](C)CO)C(=O)c2cc(NC(=O)CCC(F)(F)F)ccc2O1 | inactive
7 | C[C@@H]1CN([C@@H](C)CO)C(=O)c2cc(NC(=O)c3ccncc3)ccc2O[C@@H](C)CCCCO[C@H]1CN(C)C(=O)Nc1ccc2c(c1)OCO2 | inactive
8 | COc1cccc(S(=O)(=O)Nc2ccc3c(c2)[C@@H]2C[C@@H](CC(=O)NCCc4ccccc4)O[C@H](CO)[C@@H]2O3)c1 | inactive
9 | COCCNC(=O)C[C@@H]1C[C@@H]2c3cc(NC(=O)COC)ccc3O[C@@H]2[C@@H](CO)O1 | inactive
10 | CN(C)CCCNC(=O)[C@@H]1c2ccccc2C(=O)N(Cc2cc(C(F)(F)F)cc(C(F)(F)F)c2)[C@H]1c1ccc(CO)cc1 | inactive
11 | CC(CN(C)C)CN1c2ccccc2CCc2ccccc21.O=C(O)C=CC(=O)O (stereo not given) | active
12 | COc1cccc(-c2ccc3c(c2)O[C@@H](CN(C)C(=O)C2CCOCC2)[C@@H](C)CN([C@H](C)CO)S3(=O)=O)c1 | inactive
13 | Cc1cc(NC(=O)C2=C(O)c3ccccc3S(=O)(=O)N2C)no1 | inactive
14 | C[C@@H]1CN([C@@H](C)CO)C(=O)c2cc(NC(=O)c3ccncc3)ccc2O[C@@H]1CN(C)S(=O)(=O)c1cn(C)cn1 | inactive
15 | NCc1ccccc1CN1CCOCC1 | inactive
16 | Cc1ccc(S(=O)(=O)Nc2ccc3c(c2)C(=O)N([C@@H](C)CO)C[C@@H](C)[C@H](CN(C)S(=O)(=O)c2ccc(Cl)cc2)OCCCC[C@@H](C)O3)cc1 | inactive
17 | Cc1noc(C)c1NC(=O)N(C)C[C@@H]1Oc2ccc(NS(=O)(=O)c3cccs3)cc2CC(=O)N([C@@H](C)CO)C[C@@H]1C | inactive
18 | C[C@H](CO)N1C[C@H](C)[C@H](CN(C)Cc2ccc(C(=O)O)cc2)Oc2ccc(NC(=O)CCN3CCOCC3)cc2C1=O | inactive
19 | COc1ccc(CN(C)C[C@H]2Oc3c(NC(=O)c4ccc(-c5nccs5)cc4)cccc3C(=O)N([C@H](C)CO)C[C@@H]2C)cc1 | inactive
20 | CN1CCN(c2c(F)cc3c(=O)c(C(=O)O)cn4c3c2SCC4)CC1 | inactive
21 | C[C@H](CO)N1C[C@H](C)[C@@H](CN(C)C(=O)Cc2ccccc2)OCCCC[C@H](C)Oc2ccc(NC(=O)CCC(F)(F)F)cc2C1=O | inactive
22 | Cc1ccc(-n2nnc(C(N)=O)c2C)cc1 | inactive
23 | CC(=O)OCC(=O)C1(O)CCC2C3CCC4=CC(=O)C=CC4(C)C3C(O)CC21C (stereo not given) | inactive
24 | Cc1cc(C(=O)Nc2cccc3c2O[C@H](CN(C)C(=O)NC(C)C)[C@@H](C)CN([C@H](C)CO)C3=O)n(C)n1 | inactive
25 | CN1CCN(C(=O)Cn2cc(-c3ccc(C(=O)NO)cc3)nn2)CC1 | inactive
26 | Cc1ccc(S(=O)(=O)N(C)C[C@H]2OCCCC[C@H](C)Oc3ccc(NS(C)(=O)=O)cc3C(=O)N([C@H](C)CO)C[C@H]2C)cc1 | inactive
27 | COc1ccc(NC(=O)N(C)C[C@H]2Oc3ncc(C#CCN(C)C)cc3C(=O)N([C@H](C)CO)C[C@H]2C)cc1 | inactive
28 | C=CCC(N)(CC=C)c1ccc(C)cc1 | inactive
29 | C[C@@H]1CCCCO[C@H](CN(C)S(=O)(=O)c2ccc(F)cc2)[C@@H](C)CN([C@@H](C)CO)C(=O)c2cc(NC(=O)Nc3ccc(C(F)(F)F)cc3)ccc2O1 | inactive
30 | COC(=O)c1c(CC[C@@H](CO)NC(=O)N[C@@H](C)Cn2cc(C3(O)CCCC3)nn2)oc(C(C)=O)c1C(=O)OC | inactive
